According to the supplement of paper PMC10126150:
Values marked as one replicate rest on one cluster of the flow cell; about a third of the high ones do not repeat.

Each sequence was assayed on ATP (assay: switch fluorescence ratio, 500 uM ATP over buffer (Cy3 cluster intensity, sum of 5 cycles each) (fold (ratio)); higher = stronger signal-on switching upon ATP binding; sequences stand for … in TCGTCGGCAGCGTCAGATGTGTATAAGAGACAGTTTTTTTTTTTTTTTTTTTTTTTTT…TC). Conditions: aptamer strand: ATP DNA aptamer (quencher-CACCTGGGGGAGTATTGCGGAGGAAGG + anchor), 100 nM annealed; ATP concentration: 500 uM; one replicate.
How it was run: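 Cy3-labelled switching-strand clusters on a modified Illumina MiSeq flow-cell were annealed to 100 nM quencher-labelled ATP aptamer and imaged first in selection buffer, then after 15 min with 500 uM ATP at 22 °C. NaOH stripping and re-annealing separated each of five buffer/ATP cycles, and clusters outside 100-1000 RFU were excluded. The fluorescence ratio sums target-cycle Cy3 intensity over buffer-cycle Cy3 intensity per cluster and averages it per switch-domain sequence.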
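Note: ATP exposure 15 min at 22 °C before imaging.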

Row | Sequence | switch fluorescence ratio
1 | CGGGAAGAAA | 0.951
2 | CGGGAATAAG | 0.993
3 | CGGGAATGCG | 1.04
4 | CGGGACCAG | 1.03
5 | CGGGAGATCT | 0.993
6 | CGGGAGCTAA | 1.17
7 | CGGGAGTCGT | 1.02
8 | CGGGATAAGT | 1.01
9 | CGGGATCCCC | 0.969
10 | CGGGCAGCCG | 0.902
11 | CGGGCATTCA | 0.984
12 | CGGGCCCTCC | 0.99
13 | CGGGCGCATG | 1.02
14 | CGGGCTACCA | 1.05
15 | CGGGCTTGAC | 1.01
16 | CGGGCTTTTG | 0.962
17 | CGGGGAACCG | 0.984
18 | CGGGGAACCT | 0.986
19 | CGGGGAACT | 1.04
20 | CGGGGACCCA | 1.02
21 | CGGGGACGT | 0.986
22 | CGGGGAGACT | 1.02
23 | CGGGGCCGC | 0.974
24 | CGGGGCGCA | 1.02
25 | CGGGGCTAAT | 0.984
26 | CGGGGCTTGA | 1

Row | Sequence | switch fluorescence ratio
27 | CGGGGGTGT | 1.05
28 | CGGGGTAGT | 1.01
29 | CGGGGTTCAC | 0.962
30 | CGGGGTTCAT | 0.99
31 | CGGGGTTCTA | 1
32 | CGGGTAGCCG | 0.924
33 | CGGGTATCGC | 1.03
34 | CGGGTATCGT | 0.987
35 | CGGGTCACAC | 1.23
36 | CGGGTCCGAA | 0.998
37 | CGGGTCCTAT | 0.975
38 | CGGGTGAAGA | 1.01
39 | CGGGTGAGCC | 1.02
40 | CGGGTGCCGG | 0.984
41 | CGGGTGCTTG | 1.08
42 | CGGGTGTGCA | 1.07
43 | CGGGTGTTTC | 0.993
44 | CGGGTTCGAC | 0.943
45 | CGGGTTTGTA | 0.986
46 | CGGTAAACTA | 1.01
47 | CGGTAAGGCT | 1.04
48 | CGGTACCCGA | 0.983
49 | CGGTACCGAC | 0.975
50 | CGGTACGCGC | 1.06
51 | CGGTACGGAA | 0.988
52 | CGGTACTTTC | 0.966

Row | Sequence | switch fluorescence ratio
53 | CGGTAGAATT | 0.974
54 | CGGTAGCACG | 0.981
55 | CGGTAGGTGT | 1.06
56 | CGGTAGTCGT | 0.985
57 | CGGTAGTTAG | 0.942
58 | CGGTATGAGA | 1.02
59 | CGGTCAGCTT | 0.997
60 | CGGTCATGAG | 1.02
61 | CGGTCATGGG | 0.992
62 | CGGTCCGAGG | 1.04
63 | CGGTCCGGTC | 1.01
64 | CGGTCCGTAT | 0.952
65 | CGGTCCTGA | 1
66 | CGGTCCTGCT | 0.969
67 | CGGTCGTGCA | 0.99
68 | CGGTCTATGG | 1.02
69 | CGGTCTTAA | 0.986
70 | CGGTCTTGAT | 1.01
71 | CGGTGAAACC | 1.02
72 | CGGTGAGTTT | 0.945
73 | CGGTGCAATG | 1.76
74 | CGGTGCGAGC | 0.984
75 | CGGTGGAGCA | 1.01
76 | CGGTGGCCTA | 1.02
77 | CGGTGGGACT | 0.983
78 | CGGTGGGGCT | 0.992

Row | Sequence | switch fluorescence ratio
79 | CGGTGGGTAC | 1.01
80 | CGGTGTATAC | 1.27
81 | CGGTTAACT | 1.06
82 | CGGTTACACT | 1.05
83 | CGGTTCCTC | 1.07
84 | CGGTTCGAAT | 1.01
85 | CGGTTGAAAA | 1.01
86 | CGGTTGCTTT | 0.951
87 | CGGTTGTCCC | 0.96
88 | CGGTTTCCGT | 1.04
89 | CGGTTTTTGA | 0.992
90 | CGTAACACCG | 1.01
91 | CGTAACGCCT | 0.985
92 | CGTAATTAT | 1.03
93 | CGTAATTTTT | 1.01
94 | CGTACAGAAA | 1.04
95 | CGTACGATCG | 1.02
96 | CGTACGTTAC | 2.07
97 | CGTACTCGGA | 1.01
98 | CGTAGAACAC | 1.1
99 | CGTAGAACCT | 1.17
100 | CGTAGACAGC | 1.01
101 | CGTAGAGGAC | 0.973
102 | CGTAGCCAGT | 1.11
103 | CGTAGGCCTC | 1
104 | CGTAGGGACT | 0.994

Row | Sequence | switch fluorescence ratio
105 | CGTAGGGGAT | 1
106 | CGTAGTCATC | 1.24
107 | CGTAGTCGTG | 0.961
108 | CGTAGTGGG | 0.984
109 | CGTAGTGGGT | 1.17
110 | CGTATACTTC | 1.1
111 | CGTATCTTTG | 0.975
112 | CGTATGCCAC | 1.04
113 | CGTATTCATC | 0.982
114 | CGTATTGGAA | 0.949
115 | CGTATTGGAC | 1.02
116 | CGTATTGGCA | 0.978
117 | CGTCAAAATG | 1.04
118 | CGTCAGCGAG | 1.16
119 | CGTCAGGGAC | 1.04
120 | CGTCAGTTGC | 1.11
121 | CGTCATTCT | 1.02
122 | CGTCATTTCC | 1.12
123 | CGTCCCACAT | 1.4
124 | CGTCCTTCAG | 0.996
125 | CGTCCTTTT | 1
126 | CGTCGAGAAC | 1.08
127 | CGTCGATCAA | 0.996
128 | CGTCGTAACG | 0.989
129 | CGTCGTATCA | 0.981
130 | CGTCGTCTTA | 0.996

Row | Sequence | switch fluorescence ratio
131 | CGTCTACTCC | 3.01
132 | CGTCTGAAGA | 0.986
133 | CGTCTGCGTA | 1.05
134 | CGTCTGGGTC | 1.02
135 | CGTCTGTTTC | 1.06
136 | CGTCTTAAGG | 0.996
137 | CGTGAAATTA | 1
138 | CGTGAACTCA | 1.08
139 | CGTGAGCCGG | 0.955
140 | CGTGATATT | 1.08
141 | CGTGATCATA | 1.01
142 | CGTGATTTCT | 0.957
143 | CGTGCAAGGT | 1.09
144 | CGTGCAGCGC | 1.05
145 | CGTGCTCAAC | 1.03
146 | CGTGCTGCGT | 1.04
147 | CGTGCTTTGG | 0.954
148 | CGTGGAAGGT | 0.959
149 | CGTGGACCCT | 1.01
150 | CGTGGCAACA | 0.972
151 | CGTGGCACTC | 1.08
152 | CGTGGCTCGT | 0.995
153 | CGTGGGATTT | 1
154 | CGTGGTCGC | 0.988
155 | CGTGGTCGGT | 0.999
156 | CGTGGTGAGA | 1.05

Row | Sequence | switch fluorescence ratio
157 | CGTGGTTACC | 0.997
158 | CGTGTATACG | 1.01
159 | CGTGTCCAGA | 0.997
160 | CGTGTCGGCA | 1.01
161 | CGTGTCGGGT | 1.02
162 | CGTGTCTTGT | 1
163 | CGTGTGATCC | 1.02
164 | CGTGTGGCT | 1.03
165 | CGTGTTAGAC | 1.07
166 | CGTTAAATAG | 1.08
167 | CGTTAAGGAT | 0.976
168 | CGTTAATTTC | 0.995
169 | CGTTACCGGC | 0.96
170 | CGTTACGGTG | 1.01
171 | CGTTAGACCC | 1.02
172 | CGTTAGAGTT | 1.03
173 | CGTTAGATGC | 1.1
174 | CGTTAGCCTC | 1.01
175 | CGTTAGCGAT | 1.19
176 | CGTTAGCTAA | 1.03
177 | CGTTAGGGGT | 0.976
178 | CGTTATGTTA | 0.96
179 | CGTTATTGTT | 0.976
180 | CGTTATTTG | 0.952
181 | CGTTCATATT | 0.985
182 | CGTTCCGGAT | 1.07

Row | Sequence | switch fluorescence ratio
183 | CGTTCGAATA | 1.05
184 | CGTTCGGGCG | 1.07
185 | CGTTCTCCTG | 1.01
186 | CGTTCTCGTT | 0.952
187 | CGTTCTGTAA | 1.07
188 | CGTTCTGTGC | 1.03
189 | CGTTCTTTTT | 0.983
190 | CGTTGAAATC | 0.993
191 | CGTTGACTGC | 1.07
192 | CGTTGATGGC | 1.03
193 | CGTTGCTGT | 1.03
194 | CGTTGGTGA | 0.988
195 | CGTTGTAAGT | 0.981
196 | CGTTGTGTTT | 0.977
197 | CGTTGTTTCA | 0.99
198 | CGTTTACTG | 0.987
199 | CGTTTAGTGA | 1
200 | CGTTTCGGTG | 1.02
201 | CGTTTGCTGA | 0.973
